The campaign covered roughly 400,000 compounds. About 2,200 (0.55%) were called active. The inconclusive results got no clear call from the source; some entries with a clear call stand among them for comparison. The call rests on the fitted dose curve; in most records, active means well fitted inhibition curve with a large enough effect; inconclusive means small, poorly fitted or top-dose-only effect, or another doubt; inactive means no such curve, though single readings can be large or run the other way. Potencies beside an inconclusive call are fits to weak or partial responses and may not hold up.
Molecular target: DNA polymerase kappa (Homo sapiens) (UniProt Q9UBT6)
Assay: qHTS for Inhibitors of Polymerase Kappa
Details: purified Pol kappa, fluorescent DNA synthesis assay, 10 min; series mostly up to 107 µM; activity, negative = inhibition: at the top concentration
Outline: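 10 nM Pol kappa was preincubated with compounds for 15 min at room temperature. Reaction started with 50 nM (final) substrate. Fluorescence read kinetically at 0 and 10 min.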
On the % scale 0 is the no-effect control and ±100 the full control effect; potency means the concentration at half of the fitted maximal effect; tags describe the fitted curve by direction and shape.

Chain of UniProt Q9UBT6 (Q9UBT6 whole entry, looked up): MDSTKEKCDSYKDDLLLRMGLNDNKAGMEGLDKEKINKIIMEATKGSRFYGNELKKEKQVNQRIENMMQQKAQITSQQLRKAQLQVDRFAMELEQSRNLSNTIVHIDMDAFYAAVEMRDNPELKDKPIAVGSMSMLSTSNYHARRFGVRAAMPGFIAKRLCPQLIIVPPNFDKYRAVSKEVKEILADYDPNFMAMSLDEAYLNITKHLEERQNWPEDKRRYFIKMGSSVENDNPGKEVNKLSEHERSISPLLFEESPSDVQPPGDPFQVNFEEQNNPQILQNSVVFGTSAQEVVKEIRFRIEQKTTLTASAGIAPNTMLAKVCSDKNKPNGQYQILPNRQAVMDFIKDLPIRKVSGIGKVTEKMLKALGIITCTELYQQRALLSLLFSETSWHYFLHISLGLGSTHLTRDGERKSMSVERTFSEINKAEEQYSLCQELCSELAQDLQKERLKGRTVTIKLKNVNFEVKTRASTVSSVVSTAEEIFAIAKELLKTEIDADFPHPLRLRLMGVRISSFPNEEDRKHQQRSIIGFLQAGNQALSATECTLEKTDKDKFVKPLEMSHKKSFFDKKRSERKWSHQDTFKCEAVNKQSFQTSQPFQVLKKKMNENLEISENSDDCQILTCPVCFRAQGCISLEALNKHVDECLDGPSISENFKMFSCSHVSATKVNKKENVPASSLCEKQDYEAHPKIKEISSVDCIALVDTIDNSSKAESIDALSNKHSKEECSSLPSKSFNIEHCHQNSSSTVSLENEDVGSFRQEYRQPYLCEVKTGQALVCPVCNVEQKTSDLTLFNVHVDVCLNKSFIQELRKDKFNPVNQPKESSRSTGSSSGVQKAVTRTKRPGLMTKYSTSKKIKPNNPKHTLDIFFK

| SMILES | activity, negative = inhibition | Potency |
| --- | --- | --- |
| COC(=O)c1cc2oc(C)cc2n1Cc1c(C)cc(C)cc1C | inactive: 7.1% | – |
| CCS(=O)(=O)Nc1ccc(-c2nc3cccnc3s2)cc1 | inactive: 1.11% | – |
| CC1=NN(c2cccc(C(=O)O)c2)C(=O)/C1=C\C=C\c1ccco1 | – | active: 7.08 µM |
| O=C(CSc1oc(-c2ccco2)nc1S(=O)(=O)c1ccc(Cl)cc1)c1ccc(Cl)cc1 | – | active: 50.1 µM |
| CCCSc1nc(C)c(-c2csc(C(C#N)=C3CCCC3)n2)cc1C#N | – | inconclusive: 89.1 µM [inhibitor, single point] |
| NN1C(=O)/C(=C\c2ccco2)SC1=S | – | inconclusive: 89.1 µM [inhibitor, single point] |
| CCOc1ccc(-c2c(C(=O)N/N=C/c3cccnc3)nnn2-c2nonc2N)cc1 | – | inconclusive: 89.1 µM [inhibitor, single point] |
| COc1ccc(C(=O)NNC(=O)c2ccc(S(=O)(=O)N3CCCCC3)cc2)cc1 | – | inconclusive: 89.1 µM [inhibitor, partial curve, poor fit] |
| Cc1cc(NC(=O)CSc2cn(CCNC(=O)c3ccccc3)c3ccccc23)no1 | – | active: 11.2 µM |
| c1ccc2c(c1)ccc1nnnn12 | – | inconclusive: 89.1 µM [inhibitor, single point] |
| C1=C(N2CCOCC2)/C(=C/c2nc3ccccc3[nH]2)CC1 | – | active: 79.4 µM |
| Cc1ccn(C(C)CC(=O)N2CCc3ccccc32)n1 (configuration not stated) | inactive: 3.74% | – |
| N#Cc1c(-n2ncnc2-c2cccc(Br)c2)sc2c1CCCCC2 | – | inconclusive: 100 µM [inhibitor, single point] |
| CC(=O)Nc1c2c(nn1-c1cccc(C)c1)CSC2 | – | inconclusive: 89.1 µM [inhibitor, single point] |
| O=C1c2cccc(NCCNCCO)c2C(=O)c2cccc(NCCNCCO)c21 | – | active: 28.2 µM |
| Cc1ccc(Cl)cc1N1CCN(C(=O)CCCn2c(=O)[nH]c3ccc(Br)cc3c2=O)CC1 | – | inconclusive: 89.1 µM [inhibitor, single point] |
| O=C(Cc1ccc(Cl)c(Cl)c1)Nc1cccc(S(=O)(=O)N2CCOCC2)c1 | inactive: -15.8% | – |
| COc1cc(/C=C2\SC(=S)N(NC(=O)c3cccnc3)C2=O)ccc1O | – | inconclusive: 79.4 µM [inhibitor, partial curve, poor fit] |
| Cc1cccc(OCC(=O)N/N=C/C=C/c2ccco2)c1 | – | inconclusive: 39.8 µM [inhibitor, partial curve, poor fit] |
| Cc1cc(CC(=O)O)c2oc(-c3ccoc3)cc(=O)c2c1 | – | active: 39.8 µM |
| CC1CCCCN1C(=O)CN1C(=O)CSc2ccc(S(=O)(=O)N3CCOCC3)cc21 (configuration not stated) | – | inconclusive: 79.4 µM [inhibitor, partial curve, poor fit] |
| CCN(CC)c1ccc2cc(-c3nc(-c4cc5ccccc5oc4=O)cs3)c(=O)oc2c1 | – | inconclusive: 39.8 µM [inhibitor, single point] |
| CCOc1ccc(NC(=O)c2ccc(NC(=O)COC(=O)c3ccc(NC(=O)CC#N)cc3)cc2)cc1 | – | active: 22.4 µM |
| O=C(O)COc1ccc(Br)cc1/C=C1/SC(=O)N(CC(=O)N2CCCC2)C1=O | inactive: -8.74% | – |

| SMILES | activity, negative = inhibition | Potency |
| --- | --- | --- |
| O=C(COC(=O)c1c2c(nc3ccccc13)/C(=C/c1ccco1)CC2)NC1CCCC1 | – | active: 31.6 µM |
| NC(=O)c1c(NC(=O)c2ccc(F)cc2)sc2c1CCC2 | inactive: -9.65% | – |
| CC(=NO)c1ccc2c(c1)Cc1cc([N+](=O)[O-])ccc1-2 | inactive: -12.6% | – |
| COC(=O)c1ccc2c(c1)C(C)(C)C(/C=C/c1ccc(O)cc1)=[N+]2C | – | active: 28.2 µM |
| CCC(C)C(NC(=O)C1CCC(C)CC1)C(=O)NCCc1ccc(S(N)(=O)=O)cc1 (configuration not stated) | – | inconclusive: 89.1 µM [inhibitor, single point] |
| Cc1onc(-c2c(F)cccc2Cl)c1C(=O)OCC(=O)NCc1ccco1 | – | inconclusive: 89.1 µM [inhibitor, single point] |
| Cc1occc1C(=O)N1CCN(c2ccc([N+](=O)[O-])cc2)CC1 | inactive: -4.88% | – |
| COc1cc2c3c(n(C)c(=O)c2cc1OC)-c1cc2c(cc1C3=O)OCO2 | – | inconclusive: 89.1 µM [inhibitor, single point] |
| O=C(NO)c1cc(OCC(F)(F)F)ccc1OCC(F)(F)F | – | inconclusive: 89.1 µM [inhibitor, partial curve, poor fit] |
| CCC1(C)NC(=O)N(CC(=O)Nc2sc3c(c2C(N)=O)CCC3)C1=O (configuration not stated) | – | inconclusive: 79.4 µM [inhibitor, partial curve] |
| CC(=O)C(=Cc1ccc(C(=O)O)cc1)C(C)=O | – | inconclusive: 89.1 µM [inhibitor, single point] |
| CN(C)CCc1cc2c(c3c1ccc1ccccc13)OCO2 | – | inconclusive: 56.2 µM [inhibitor, partial curve, poor fit] |
| CS(=O)(=O)n1nc(-c2ccco2)nc1NCc1ccccc1Cl | inactive: -15.6% | – |
| COc1ccccc1N1CC(C(=O)NCCN2C(=O)S/C(=C\c3cccnc3)C2=O)CC1=O (configuration not stated) | – | inconclusive: 89.1 µM [inhibitor, partial curve, poor fit] |
| COc1cc(Cl)c(C)cc1NC(=O)CSc1cc(-c2ccccc2)nc(C)n1 | inactive: -7.48% | – |
| CCC1(C)CC(C(N)=S)CCO1 (configuration not stated) | inactive: 3.87% | – |
| O=S(=O)(c1ccc(NC(=S)N/N=C/c2ccc(O)c(O)c2)cc1)N1CCOCC1 | – | inconclusive: 20 µM [inhibitor, full curve] |
| Cc1ccc(OCc2cc(C(=O)N(C)Cc3cnn(-c4ccccc4C)c3)no2)cn1 | inactive: -16.3% | – |
| O=C(O)C(c1ccccc1)N1C(=O)c2cccc3cccc(c23)C1=O (configuration not stated) | inactive: -0.599% | – |
| Cc1cccc2sc(NC(=O)C3CCN(S(=O)(=O)c4cc([N+](=O)[O-])ccc4Cl)CC3)nc12 | – | active: 79.4 µM |
| O=C(O)CCCN1C(=O)/C(=C/c2cn(-c3ccccc3)nc2-c2cccs2)SC1=S | – | inconclusive: 89.1 µM [inhibitor, single point] |
| O=C(CCl)c1ccc2c(c1)CCCC2 | inactive: -6.97% | – |
| CCOCCCn1c(SCC(=O)Nc2cc(C)ccc2C)nc2c(oc3ccccc32)c1=O | – | inconclusive: 89.1 µM [inhibitor, single point] |

From PubChem BioAssay AID588579 (National Center for Advancing Translational Sciences (NCATS), 2011)
